Values marked as one replicate rest on one cluster of the flow cell; about a third of the high ones do not repeat.
Tested on: ATP
Assay: switch fluorescence ratio, 500 uM ATP over buffer (Cy3 cluster intensity, sum of 5 cycles each) (fold (ratio)); higher = stronger signal-on switching upon ATP binding; sequences stand for … in TCGTCGGCAGCGTCAGATGTGTATAAGAGACAGTTTTTTTTTTTTTTTTTTTTTTTTT…TC
Settings: aptamer strand: ATP DNA aptamer (quencher-CACCTGGGGGAGTATTGCGGAGGAAGG + anchor), 100 nM annealed; ATP concentration: 500 uM; one replicate
Summary of the method: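 The quencher-labelled ATP aptamer, at 100 nM, was annealed to Cy3-labelled switching-strand clusters on a modified Illumina MiSeq flow-cell. The clusters were imaged in selection buffer, then after 15 min with 500 uM ATP at 22 °C, and this buffer/ATP cycle ran five times with NaOH stripping and re-annealing between runs. Per-cluster fluorescence ratios, summed target-cycle over summed buffer-cycle Cy3 intensity, were averaged per switch-domain sequence. Clusters outside 100-1000 RFU were excluded.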
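Further: ATP exposure 15 min at 22 °C before imaging.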

Sequence	switch fluorescence ratio
TGCCACTTAA	1.07
GTTTCTAACT	1.06
TGTTGATAAC	1.05
GGGAGTATT	1.08
ACGTGAGGAC	1.06
GGTCGGAAAT	1
TCTTCTTGTC	0.981
GAGCTCCTAT	1.02
ACTTGATCAT	1.02
CAGTGCGAGG	0.994
CCTACGGGCT	1.44
ACAATTAT	0.949
GTCAGACGGC	0.978
GAGCGGGAGA	1.05
TAGGCCGGGC	1.03
AGAATAAACA	1.04
GGAAACATCA	1.04
CGATTCAAGA	1.01
TCTACACTAT	1.04
TTCGCACAAG	1.04
TGTCAGTG	1.04
TGCTTCGGGT	0.989
GGGGGAAAAC	0.946

Sequence	switch fluorescence ratio
GGCCTTACGC	1.05
CGGGACCGTC	1.02
GGACTCATGC	1.09
CATTATAGGG	0.954
CAGTGTCAAT	1.02
GGTTTTAGCG	0.943
ATGCACGGCA	1.01
GGCCTGTAAC	1.05
ATATCAGTCA	0.963
TTATGAGGTA	1.01
CGCCTGGTCC	1.13
GACGTTTACT	1.08
TTATGGCAGG	1.01
GTGCAAAGCG	0.993
CTTGACGGGA	1.2
GGGGGGATT	1.03
GAGTAAAAGT	0.974
TGCCCGTAGA	1
GCATTAGTTG	0.937
TATACTCAT	1.09
TGCGGTTTAC	1.07
TGGGACAGAC	1.09
GGTGGGCTAG	0.991

Sequence	switch fluorescence ratio
AAACGTGGGT	0.937
TTTCTGACAT	0.992
TCGTGAGCGT	1.7
AACTTGATGT	0.999
AGCCATGCAC	1.05
CTGCACTGTT	0.975
AGGCACGGGA	1.01
TGCCAGGCTT	0.979
CGATCAGGC	1.08
TTCAAAAGGT	0.993
ATCCGGTAA	1.02
TACCAACACG	1.2
GGTGCGTTGA	1
AGAAGTGTAG	1.08
GGCAACCCGG	1.02
TAATTAAAAA	0.993
TGGCTGGCTT	1.02
GTCCTGGCTT	0.994
AGTTGACGTG	0.951
CGCAATAAAG	6.04
TCCTATTCTC	0.974
AGGTAATCTG	0.99
CTGCCCCGGG	1.73

Sequence	switch fluorescence ratio
ATGGCTATTG	1.01
CATACCTCT	1.01
TGGGGTTTCT	1.01
GGCCTACGGA	0.994
ACAGGAGTGA	0.964
TTCACCATTA	1.01
ATAGTCACTT	1.02
TAGTTGTATG	1
GTCATTCTTG	0.98
CGCATTATGC	2.03
TCGGGCTGCC	0.996
ACCACTATG	1.06
GATATTAATG	0.986
CGCCTCTGAC	1.3
TTCCGTAATC	4.88
ACTTAGGT	1.04
CCACGCACCT	1.72
TACCGAAGGT	1.15
TTTAAGGAT	0.96
GAGTCAGTTT	0.996
TGGGTGACAA	1.02
GAATCTAATA	1.02
TATGTCGATT	0.977

Sequence	switch fluorescence ratio
GTAGGGTATT	1.03
CGAGAATTGA	0.967
GTATAGTGTT	0.989
CGGGTTGGAC	1.03
GGAATCCATC	1.06
CAGACCCGTC	0.994
CGAATAGTG	0.992
AGTAGGGAAT	1.02
CGTAGCAAAA	1.93
CGTTAGGGTT	1
CTCAGTCATT	1.05
TGCAGAATTG	1
ATATTAATTA	0.97
CGCCATCGAA	1.01
GATTACTTCG	0.979
CAAAGCCACA	1.04
CACCCGGGGA	1.14
CGCTCATGCT	1.11
CAATAGTGCG	1.05
CCCCTGTCAT	1.07
TCTATAGGGT	1.07
GAGTGAGCCC	0.925
CAGTTCGCCA	0.989

Sequence	switch fluorescence ratio
TATTCCTTTG	1.03
CCAATTTGAG	1.01
CCCTTTAGAG	1.01
GATGGTAGCG	0.934
GGTTGGGAGT	1.01
ATGGGTTTTG	1.01
TTCTCCCTGT	1.08
CTTCAAGGGA	0.989
AGTTAGGCAC	1.01
CTGATTACTT	0.996
GATCCGACTG	1.02
CTTGGCTTCT	1.01
AGAAAAGATT	1.02
GTGTGACATG	0.992
AGGTTTAAGC	1.03
AGGCGAACGG	1.04
CAAAGGGGCC	1.07
TCTATCAGAG	0.99
GGATGCCGTG	1
ATCGACTGTT	1.04
GACGACGAAT	4.03
AGCAATAGTA	2.25
CGACGCGTAA	7.2

Sequence	switch fluorescence ratio
TGGGGCGCGG	0.988
GTAAACCCGG	1.51
ACCCGCGTTG	1.1
AAGAGCCCTT	0.988
GATTACGTT	1.03
TATGCGGCCC	0.995
AGATAAGATG	0.972
GGTTGTACTA	1.01
TTTGAGCCTT	1
GCTATTTCCG	1.01
CTATTGGATT	1.01
ATACTGTATA	1.17
TTGAGATTGT	1.01
ACGTATCACC	1.2
CGATTAAGGA	0.968
TACGCCACGG	1.59
AAGGGACTTT	1.02
GTAGTAGGCG	0.97
ACGCTCTGGC	1.07

Reference: the supplement of paper PMC10126150
